Experimental data published in the supplement of paper PMC4967469.

Key:
Assay in all cases: Viability of human cancer cell lines after 72 h of drug (GDSC screen)
[1] = compound: C[C@@H](N)c1ccc(C(=O)Nc2ccnc3[nH]ccc23)cc1 [Y-39983]; details: top dose 20 µM; top dose inferred
Protocol: (§1)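 Human cancer cell lines in 384-well plates, medium with 10% serum, drug for 72 h over a 256-fold dose range (nine 2-fold or five 4-fold steps up to the top dose). Adherent lines were fixed and stained with the nucleic acid dye Syto60, suspension lines read with resazurin; signal relative to control wells, capped at 0 and 100%. One two-parameter sigmoid per drug and line, fitted in a mixed model over all curves with the slope shared within a line.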

[2] = compound: NC(=O)Nc1sc(-c2ccc(F)cc2)cc1C(N)=O [TPCA-1]; details: top dose 20 µM
Protocol: as §1

[3] = compound: CN1CCN(CCOc2cc(OC3CCOCC3)c3c(Nc4c(Cl)ccc5c4OCO5)ncnc3c2)CC1 [AZD-0530]; details: top dose 2 µM
Protocol: as §1

[4] = compound: CC(C)CC(=O)Nc1n[nH]c2c1CN(C(=O)C1CCN(C)CC1)C2(C)C [PHA-793887]; details: top dose 10.24 µM
Protocol: as §1

[5] = compound: CCc1nc(N)nc(N)c1-c1ccc(Cl)cc1 [Pyrimethamine]; details: top dose 20 µM; top dose inferred
Protocol: as §1

[6] = compound: C/C(=C\c1csc(C)n1)[C@@H]1C[C@@H]2O[C@]2(C)CCC[C@H](C)[C@H](O)[C@@H](C)C(=O)C(C)(C)[C@@H](O)CC(=O)O1 [Epothilone B]; details: top dose 0.032 µM; top dose inferred
Protocol: as §1

[7] = compound: CCCS(=O)(=O)Nc1ccc(F)c(C(=O)c2c[nH]c3ncc(Cl)cc23)c1F [PLX4720]; details: top dose 10 µM
Protocol: as §1

[8] = screen: GDSC drug entry 1371, top dose inferred

Row | Cell Line | AUC [1] | pIC50 [1] | AUC [2] | pIC50 [2] | AUC [3] | pIC50 [3] | AUC [4] | pIC50 [4] | AUC [5] | pIC50 [5] | AUC [6] | pIC50 [6] | AUC ([7]; screen: GDSC drug entry 1036) | pIC50 ([7]; screen: GDSC drug entry 1036) | AUC [7, 8] | pIC50 [7, 8]
1 | Daudi (Burkitt lymphoma, suspension) | 0.911 | < 4.70 | 0.852 | 4.90 | 0.968 | < 5.70 | 0.596 | 5.95 | 0.924 | < 4.70 | 0.839 | 7.75 | 0.985 | < 5.00 | 0.99 | < 5.00
2 | EB-3 (Burkitt lymphoma, suspension) | 0.974 | < 4.70 | 0.881 | < 4.70 | 0.931 | < 5.70 | 0.633 | 5.80 | 0.98 | < 4.70 | 0.899 | < 7.49 | 0.981 | < 5.00 | 0.943 | < 5.00
3 | EC-GI-10 (oesophagus, adherent) | 0.937 | < 4.70 | 0.92 | < 4.70 | 0.979 | < 5.70 | 0.989 | < 4.99 | 0.98 | < 4.70 | 0.894 | < 7.49 | 0.983 | < 5.00 | 0.936 | < 5.00
4 | EJM (lymphoid neoplasm, semi-adherent) | 0.936 | < 4.70 | 0.611 | 5.62 | 0.986 | < 5.70 | 0.679 | 5.74 | 0.988 | < 4.70 | 0.79 | 7.93 | 0.988 | < 5.00 | 0.992 | < 5.00
5 | EKVX (lung adenocarcinoma, adherent) | 0.911 | < 4.70 | 0.932 | < 4.70 | 0.91 | < 5.70 | 0.934 | < 4.99 | 0.914 | < 4.70 | 0.85 | < 7.49 | 0.957 | < 5.00 | 0.895 | < 5.00
6 | ES1 (Ewing sarcoma, adherent) | 0.88 | < 4.70 | 0.743 | 5.21 | 0.972 | < 5.70 | 0.422 | 6.41 | 0.803 | 5.01 | 0.3 | 9.26 | 0.971 | < 5.00 | 0.962 | < 5.00
7 | ES3 (Ewing sarcoma, adherent) | 0.914 | < 4.70 | 0.723 | 5.25 | 0.942 | < 5.70 | 0.613 | 5.88 | 0.925 | < 4.70 | 0.737 | 8.00 | 0.954 | < 5.00 | 0.943 | < 5.00
8 | ES4 (Ewing sarcoma, adherent) | 0.893 | < 4.70 | 0.656 | 5.44 | 0.892 | < 5.70 | 0.734 | 5.48 | 0.65 | 5.46 | 0.364 | 9.10 | 0.93 | < 5.00 | 0.834 | 5.10
9 | ES5 (Ewing sarcoma, adherent) | 0.9 | < 4.70 | 0.575 | 5.68 | 0.982 | < 5.70 | 0.745 | 5.44 | 0.976 | < 4.70 | 0.853 | 7.51 | 0.774 | 5.35 | 0.931 | < 5.00
10 | ES6 (Ewing sarcoma, adherent) | 0.894 | < 4.70 | 0.799 | 4.91 | 0.954 | < 5.70 | 0.979 | < 4.99 | 0.814 | 4.84 | 0.669 | 8.18 | 0.961 | < 5.00 | 0.918 | < 5.00
11 | ES7 (Ewing sarcoma, adherent) | 0.8 | 5.00 | 0.631 | 5.54 | 0.984 | < 5.70 | 0.361 | 6.58 | 0.825 | 4.91 | 0.685 | 8.17 | 0.969 | < 5.00 | 0.941 | < 5.00
12 | ES8 (Ewing sarcoma, adherent) | 0.809 | 5.02 | 0.579 | 5.69 | 0.975 | < 5.70 | 0.248 | 6.89 | 0.473 | 5.97 | 0.48 | 8.75 | 0.985 | < 5.00 | 0.978 | < 5.00
13 | ETK-1 (biliary tract, adherent) | 0.93 | < 4.70 | 0.903 | < 4.70 | 0.902 | < 5.70 | 0.746 | 5.44 | 0.666 | 5.41 | 0.422 | 8.92 | 0.983 | < 5.00 | 0.94 | < 5.00
14 | EVSA-T (breast, adherent) | 0.916 | < 4.70 | 0.68 | 5.44 | 0.975 | < 5.70 | 0.878 | 5.11 | 0.991 | < 4.70 | 0.867 | 7.65 | 0.979 | < 5.00 | 0.991 | < 5.00
15 | EW-1 (Ewing sarcoma, semi-adherent) | 0.937 | < 4.70 | 0.701 | 5.36 | 0.986 | < 5.70 | 0.346 | 6.60 | 0.482 | 5.95 | 0.474 | 8.77 | 0.977 | < 5.00 | 0.988 | < 5.00
16 | EW-3 (Ewing sarcoma, adherent) | 0.953 | < 4.70 | 0.678 | 5.37 | 0.974 | < 5.70 | 0.831 | 5.11 | 0.96 | < 4.70 | 0.946 | < 7.49 | 0.98 | < 5.00 | 0.92 | < 5.00
17 | EW-11 (Ewing sarcoma, adherent) | 0.981 | < 4.70 | 0.689 | 5.30 | 0.965 | < 5.70 | 0.704 | 5.54 | 0.919 | < 4.70 | 0.865 | < 7.49 | 0.967 | < 5.00 | 0.821 | 5.09

pIC50: −log10 of the molar value. IC50 is the fitted dose that halves viability relative to control wells, and lower means more sensitive; a limit (>, <) means that the fit lies beyond the doses tested. AUC is the area under the same curve over the 256-fold range up to the top dose, as a fraction: 1 means no effect, lower means more sensitive. For some assays here: An inferred top dose comes from the curve model; the source does not state it. For some assays here: Drugs with an entry number were screened twice under separate entries, and the two screens often disagree.
